Test results published in the supplement of paper PMC11417369.
The list shows a part of the results.

tested on: PfHDP1 homeodomain (GST-tagged); test: gcPBM binding intensity (ln(normalized median fluorescence intensity)); higher = stronger DNA binding
Summary of the method: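 An Agilent 4 × 180k array carrying primer-extended double-stranded 36-bp intergenic genomic probes and negative controls received GST-tagged P. falciparum DNA-binding domains expressed in E. coli, about 25 μg on average, for 1 h. The binding buffer contained 1× PBS, 1% milk, 0.2 mg/ml BSA, 0.5% salmon testes DNA and 0.03% Triton X-100. Binding intensity is the top Masliner-normalised natural-log median intensity across replicate spots of either probe orientation, read after Alexa488 anti-GST antibody staining and a 488 nm scan.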

| Sequence | gcPBM binding intensity (ln) |
| --- | --- |
| ACTTCAAAAATAAACTGTACGTAAAAAAAAAAAAAA [XGTACX_site795] | 6.68 |
| TTTCTTTTTTTTTTTGTATATTAAATCTAAAAAGGA [TGCATGCA_negctrl_site431] | 6.24 |
| TTTCGTAAAATGAAATGTACTCAAAAGTAAATATAA [XGTACX_site214] | 6.19 |
| ACATACATACACCCACGTACGTACCGAAACACCACC [XGTACX_site1212] | 7.02 |
| GATATAATGTGTTTGGTATTCTTGATAGATAGTTTT [CACACA_negctrl_site1711] | 6.57 |
| ATGATGTCTTTATATTGTACATATATGAAGACGTTA [XGTACX_site7751] | 6.47 |
| TATATTACAAAAAGTACACACATAAATAAATACATA [CACACA_site975] | 6.79 |
| ATGCTCAAAAGATATGCATGTACAAATATATGAAAT [TGCATGCA_site592] | 8.03 |
| TATCAAATGTATATATGTACTTATATTTTTTTTATA [XGTACX_site1501] | 6.38 |
| AAATTAAAATAATAATTCTACAAATTAATTTATCAT [XGTACX_negctrl_site44] | 5.9 |
| AATATATTTTCCTGCAAACACACATATAAATGTGTA [CACACA_site532] | 6.78 |
| TTAAAAAAAAATGGCACACATTTTAATTTTATGTTT [CACACA_site5035] | 5.92 |
| TTTTATGATAATTTTGCACACACTTAGGAAAAATTA [CACACA_site1556] | 10.4 |
| TTTATTTAATTCATTGCATGTAATTTTTGTGTCCAC [TGCATGCA_site677] | 6.7 |
| AGAATAAAAAGGAACACACACACACGCATATAAATA [CACACA_site7659] | 7.08 |
| GTAATATTATAATATACACACATAGAATATAAATAT [CACACA_site6333] | 6.68 |
| TTCAAGATTTATTATACACACATATTAATATATATA [CACACA_site573] | 6.83 |
| AAAATACACCAACACACACACATATATATATATATT [CACACA_site4149] | 7.57 |
| AAAAAAAAAAAAAACACACACATATCTATAATATAT [CACACA_site7481] | 6.54 |
| TTGTGATTATATAATCGTACATAATTTTAATCACAC [XGTACX_site398] | 6.42 |
| CAAAACAAAGTTGCCGCACACAGATACGCACCCAAG [CACACA_site3455] | 7.09 |
| GAATATAAACATATTACACACATCTATATGTACTTT [CACACA_site8582] | 6.64 |
| TTATTTTTTCTTTTTTTTCTTACCACAAAAATGGAT [CACACA_negctrl_site362] | 6.32 |

| Sequence | gcPBM binding intensity (ln) |
| --- | --- |
| ATTTTTTCTAATGGGTGTACTGAAACGTATTTTATT [XGTACX_site6573] | 6.93 |
| ATTTATTTATATAATACACACAAATATCTTAATGAA [CACACA_site6064] | 6.32 |
| ATTTGTAATTATTAAACACACACAAAATATATATAA [CACACA_site8804] | 6.93 |
| AAAAAAAAAAAAAACACACACAACACCCATACCTTA [CACACA_site3621] | 6.72 |
| CTTTTAATATGTGTAGTGCATTTTTTTTTTTTTTTT [GTGCAC_site9727] | 8.23 |
| GTCCTTCATCATATTTAACACACAGAGAAAAAGCGG [CACACA_site7979] | 7.13 |
| TTTTTTTTTTTTTTGGTGCGTTTATATATAAATATA | 7.15 |
| GGAATTATATGAAATAAACACACATATGTAATATTA [CACACA_site8586] | 6.34 |
| AAAATCTAATATAATGCACACATAAAAAAAAAATCA [CACACA_site8871] | 10.4 |
| TACATCGACCTATGTACATGCAAATTATTTTTATTT [TGCATGCA_site182] | 7.1 |
| ACCTGGACAAAAATAAATAAATAAATAAATAAATGA [GTGCAC_negctrl_site238] | 6.27 |
| ACATTAAGACACATTGCACACGTGCACCCATAGAAA [CACACA_site8029] | 10.5 |
| TAAATACAGAAACACACACACAAATATATACATACA [CACACA_site2880] | 6.75 |
| AATTCTTTTTTCAACACACACACACTAGAAAATATA [CACACA_site5681] | 6.98 |
| TTTATATATTATTAATGTACAAAATTTTTATTGCAT [XGTACX_site3329] | 6.53 |
| GATATGTGACGTTTGGTATTTTTGATGTTGGTAGGA [CACACA_negctrl_site1448] | 6.65 |
| AAAAAAATAAAATTATATAAAATAAATTTTTATAAT [GTGCAC_negctrl_site587] | 5.77 |
| TTTTGGATCATTTGTTGTACATATGCAAAAAAAAAA [XGTACX_site3157] | 7.09 |
| GGAAAATACATTCCAGTGCATTAATTTATTCAACGT | 9.8 |
| TATGATACATAATATACATGCATACACAACATTCAG [TGCATGCA_site487] | 6.71 |
| ATTTTTTTGTGTTTGGTACACACGTTATAAAAAATA [CACACA_site1345] | 6.32 |
| TTGGTAATAATTTGAGGTACACTGTATAAATTTTTT [XGTACX_site909] | 6.27 |
